In the supplement of paper PMC8728848:
The other results are listed elsewhere or left out.

Key:
Experiment in all cases: glycan array binding signal (z-score within array); higher = stronger binding
Conditions in all cases: glycan notation: IUPAC condensed, linker removed
[1] = molecular target: Neu5Ac(a2-3)Gal(b1-3)[Fuc(a1-4)]GlcNAc(b1-3)Gal(b1-3)[Fuc(a1-4)]GlcNAc
In short: (§1)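 Glycan array data came from 3228 arrays in the Consortium for Functional Glycomics database, and only arrays with an available protein sequence were kept. Glycan names were put into IUPAC-condensed notation, and columns mapping to the same glycan were averaged. The binding signal is a within-array Z-score, averaged across arrays of one protein sequence run at different concentrations or buffers and across linkers. A negative Z-score can be read as non-binding.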

[2] = molecular target: Neu5Ac(a2-3)Gal(b1-3)[Fuc(a1-4)]GlcNAc(b1-3)Gal(b1-4)[Fuc(a1-3)]GlcNAc
In short: as §1

[3] = molecular target: Neu5Ac(a2-3)Gal(b1-3)[GlcNAc(b1-6)]GalNAc
In short: as §1

[4] = molecular target: Neu5Ac(a2-3)Gal(b1-3)[Neu5Ac(a2-3)Gal(b1-4)]GlcNAc
In short: as §1

[5] = molecular target: Neu5Ac(a2-3)Gal(b1-3)[Neu5Ac(a2-6)]GalNAc
In short: as §1

[6] = molecular target: Neu5Ac(a2-3)Gal(b1-3)[Neu5Ac(a2-6)]GlcNAc(b1-3)[Fuc(a1-3)[Gal(b1-4)]GlcNAc(b1-6)]Gal(b1-4)Glc
In short: as §1

[7] = molecular target: Neu5Ac(a2-3)Gal(b1-3)]Neu5Ac(a2-3)Gal(b1-4)]GlcNAc
In short: as §1

Neu5Ac(a2-3)Gal(b1-4)Glc = molecular target: Neu5Ac(a2-3)Gal(b1-4)Glc
In short: as §1

[8] = molecular target: Neu5Ac(a2-3)Gal(b1-4)GlcNAc
In short: as §1

[9] = molecular target: Neu5Ac(a2-3)Gal(b1-4)GlcNAc(b1-2)Man
In short: as §1

[10] = molecular target: Neu5Ac(a2-3)Gal(b1-4)GlcNAc(b1-2)Man(a1-3)[GlcNAc(b1-4)][Neu5Ac(a2-3)Gal(b1-4)GlcNAc(b1-2)Man(a1-6)]Man(b1-4)GlcNAc(b1-4)GlcNAc
In short: as §1

[11] = molecular target: Neu5Ac(a2-3)Gal(b1-4)GlcNAc(b1-2)Man(a1-3)[Neu5Ac(a2-3)Gal(b1-4)GlcNAc(b1-2)Man(a1-6)]Man(b1-4)GlcNAc(b1-4)GlcNAc
In short: as §1

[12] = molecular target: Neu5Ac(a2-3)Gal(b1-4)GlcNAc(b1-2)Man(a1-3)[Neu5Ac(a2-3)Gal(b1-4)GlcNAc(b1-2)Man(a1-6)]Man(b1-4)GlcNAc(b1-4)[Fuc(a1-6)]GlcNAc
In short: as §1

[13] = molecular target: Neu5Ac(a2-3)Gal(b1-4)GlcNAc(b1-2)Man(a1-3)[Neu5Ac(a2-6)Gal(b1-4)GlcNAc(b1-2)Man(a1-6)]Man(b1-4)GlcNAc(b1-4)GlcNAc
In short: as §1

[14] = molecular target: Neu5Ac(a2-3)Gal(b1-4)GlcNAc(b1-2)[Neu5Ac(a2-3)Gal(b1-4)GlcNAc(b1-4)]Man(a1-3)[GlcNAc(b1-4)][Neu5Ac(a2-3)Gal(b1-4)GlcNAc(b1-2)[Neu5Ac(a2-3)Gal(b1-4)GlcNAc(b1-6)]Man(a1-6)]Man(b1-4)GlcNAc(b1-4)GlcNAc
In short: as §1

[15] = molecular target: Neu5Ac(a2-3)Gal(b1-4)GlcNAc(b1-2)[Neu5Ac(a2-3)Gal(b1-4)GlcNAc(b1-4)]Man(a1-3)[GlcNAc(b1-4)][Neu5Ac(a2-3)Gal(b1-4)GlcNAc(b1-4)Man(a1-6)]Man(b1-4)GlcNAc(b1-4)GlcNAc
In short: as §1

[16] = molecular target: Neu5Ac(a2-3)Gal(b1-4)GlcNAc(b1-2)[Neu5Ac(a2-3)Gal(b1-4)GlcNAc(b1-6)]Man(a1-6)[Neu5Ac(a2-3)Gal(b1-4)GlcNAc(b1-2)Man(a1-3)]Man(b1-4)GlcNAc(b1-4)GlcNAc
In short: as §1

[17] = molecular target: Neu5Ac(a2-3)Gal(b1-4)GlcNAc(b1-2)[Neu5Ac(a2-3)Gal(b1-4)GlcNAc(b1-6)]Man(a1-6)[Neu5Ac(a2-3)Gal(b1-4)GlcNAc(b1-2)Man(a1-3)][GlcNAc(b1-4)]Man(b1-4)GlcNAc(b1-4)GlcNAc
In short: as §1

[18] = molecular target: Neu5Ac(a2-3)Gal(b1-4)GlcNAc(b1-3)Gal
In short: as §1

[19] = molecular target: Neu5Ac(a2-3)Gal(b1-4)GlcNAc(b1-3)Gal(b1-3)GlcNAc
In short: as §1

[20] = molecular target: Neu5Ac(a2-3)Gal(b1-4)GlcNAc(b1-3)Gal(b1-4)GlcNAc
In short: as §1

[21] = molecular target: Neu5Ac(a2-3)Gal(b1-4)GlcNAc(b1-3)Gal(b1-4)GlcNAc(b1-2)Man(a1-3)[Neu5Ac(a2-3)Gal(b1-4)GlcNAc(b1-3)Gal(b1-4)GlcNAc(b1-2)Man(a1-6)]Man(b1-4)GlcNAc(b1-4)GlcNAc
In short: as §1

[22] = molecular target: Neu5Ac(a2-3)Gal(b1-4)GlcNAc(b1-3)Gal(b1-4)GlcNAc(b1-3)Gal(b1-4)GlcNAc
In short: as §1

[23] = molecular target: Neu5Ac(a2-3)Gal(b1-4)GlcNAc(b1-3)Gal(b1-4)GlcNAc(b1-3)Gal(b1-4)GlcNAc(b1-2)Man(a1-3)[Neu5Ac(a2-3)Gal(b1-4)GlcNAc(b1-3)Gal(b1-4)GlcNAc(b1-3)Gal(b1-4)GlcNAc(b1-2)Man(a1-6)]GalNAc
In short: as §1

[24] = molecular target: Neu5Ac(a2-3)Gal(b1-4)GlcNAc(b1-3)Gal(b1-4)GlcNAc(b1-3)GalNAc
In short: as §1

[25] = molecular target: Neu5Ac(a2-3)Gal(b1-4)GlcNAc(b1-3)Gal(b1-4)GlcNAc(b1-3)[Neu5Ac(a2-3)Gal(b1-4)GlcNAc(b1-3)Gal(b1-4)GlcNAc(b1-6)]GalNAc
In short: as §1

[26] = molecular target: Neu5Ac(a2-3)Gal(b1-4)GlcNAc(b1-3)Gal(b1-4)GlcNAc(b1-6)[Gal(b1-3)]GalNAc
In short: as §1

[27] = molecular target: Neu5Ac(a2-3)Gal(b1-4)GlcNAc(b1-3)Gal(b1-4)[Fuc(a1-3)]GlcNAc
In short: as §1

[28] = molecular target: Neu5Ac(a2-3)Gal(b1-4)GlcNAc(b1-3)GalNAc
In short: as §1

[29] = molecular target: Neu5Ac(a2-3)Gal(b1-4)GlcNAc(b1-3)[Neu5Ac(a2-3)Gal(b1-4)GlcNAc(b1-6)]GalNAc
In short: as §1

B1: OVGAL11 (Ovis aries), AAF64320 (protein)
chain: MDSLPNPYLQSVSLTVCYMVKIKANLLSAFGKNPELQVDFGTGTGQGGNIPFRFWYCDGMVVMNTFTDGSWQKEEKVLTDAFVPGQPFELQFLVLEKEYQVFVKNKPICQFAHRLPLQSVKMLDVRGDIVLTSVDTL
**Q.** What does the source list for B1?
**A.** glycan array binding signal (z-score) [1]: -0.074; glycan array binding signal (z-score) [2]: 0.055; glycan array binding signal (z-score) [3]: -0.061; glycan array binding signal (z-score) [4]: -0.275; glycan array binding signal (z-score) [5]: 0.032; glycan array binding signal (z-score) [6]: -0.089; glycan array binding signal (z-score) [7]: -0.02; glycan array binding signal (z-score) (Neu5Ac(a2-3)Gal(b1-4)Glc): -0.143; glycan array binding signal (z-score) [8]: -0.182; glycan array binding signal (z-score) [9]: -0.024; glycan array binding signal (z-score) [10]: -0.064; glycan array binding signal (z-score) [11]: -0.054; glycan array binding signal (z-score) [12]: -0.09; glycan array binding signal (z-score) [13]: -0.121; glycan array binding signal (z-score) [14]: -0.11; glycan array binding signal (z-score) [15]: -0.058; glycan array binding signal (z-score) [16]: -0.037; glycan array binding signal (z-score) [17]: -0.112; glycan array binding signal (z-score) [18]: -0.09; glycan array binding signal (z-score) [19]: -0.12; glycan array binding signal (z-score) [20]: -0.296; glycan array binding signal (z-score) [21]: -0.089; glycan array binding signal (z-score) [22]: -0.021; glycan array binding signal (z-score) [23]: -0.033; glycan array binding signal (z-score) [24]: -0.013; glycan array binding signal (z-score) [25]: -0.068; glycan array binding signal (z-score) [26]: -0.068; glycan array binding signal (z-score) [27]: -0.156; glycan array binding signal (z-score) [28]: -0.05; glycan array binding signal (z-score) [29]: -0.097
